From the supplement of paper PMC4967469

Experiments:
Assay in all cases: Viability of human cancer cell lines after 72 h of drug (GDSC screen)
CAY10603 = compound: CC(C)(C)OC(=O)Nc1ccc(-c2cc(C(=O)NCCCCCCC(=O)NO)no2)cc1 [CAY10603]; settings: top dose 20 µM; top dose inferred
Protocol: (§1)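 Human cancer cell lines in 384-well plates, medium with 10% serum, drug for 72 h over a 256-fold dose range (nine 2-fold or five 4-fold steps up to the top dose). Adherent lines were fixed and stained with the nucleic acid dye Syto60, suspension lines read with resazurin; signal relative to control wells, capped at 0 and 100%. One two-parameter sigmoid per drug and line, fitted in a mixed model over all curves with the slope shared within a line.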

CH5424802 = compound: CCc1cc2c(cc1N1CCC(N3CCOCC3)CC1)C(C)(C)c1[nH]c3cc(C#N)ccc3c1C2=O [CH5424802]; settings: top dose 5.12 µM; top dose inferred
Protocol: as §1

ACHP (KIN001-260) = compound: N#Cc1c(C2CCNCC2)cc(-c2c(O)cccc2OCC2CC2)nc1N [ACHP (KIN001-260)]; settings: top dose 20 µM; top dose inferred
Protocol: as §1

Cell Line | AUC (CAY10603) | IC50 (CAY10603) | AUC (CH5424802) | IC50 (CH5424802) | AUC (ACHP (KIN001-260)) | IC50 (ACHP (KIN001-260))
Raji (Burkitt lymphoma, suspension) | 0.433 | 0.828 µM | 0.988 | > 5.12 µM | 0.915 | > 20 µM
Ramos-2G6-4C10 (Burkitt lymphoma, suspension) | 0.313 | 0.408 µM | 0.975 | > 5.12 µM | 0.914 | > 20 µM
SAS (head and neck, adherent) | 0.52 | 1.43 µM | 0.973 | > 5.12 µM | 0.975 | > 20 µM
SAT (head and neck, adherent) | 0.611 | 2.99 µM | 0.965 | > 5.12 µM | 0.965 | > 20 µM
SBC-5 (small cell lung carcinoma, adherent) | 0.474 | 1.08 µM | 0.993 | > 5.12 µM | 0.993 | > 20 µM
SCC-3 (B-cell lymphoma, suspension) | 0.511 | 1.33 µM | 0.208 | 0.0618 µM | 0.991 | > 20 µM
SCC-9 (head and neck, adherent) | 0.537 | 1.63 µM | 0.923 | > 5.12 µM | 0.972 | > 20 µM
SCC-25 (head and neck, adherent) | 0.463 | 0.974 µM | 0.98 | > 5.12 µM | 0.936 | > 20 µM
SCH (stomach, adherent) | 0.978 | > 20 µM | 0.987 | > 5.12 µM | 0.988 | > 20 µM
SF126 (glioma, adherent) | 0.56 | 1.84 µM | 0.981 | > 5.12 µM | 0.974 | > 20 µM
SF539 (glioma, adherent) | 0.528 | 1.48 µM | 0.988 | > 5.12 µM | 0.957 | > 20 µM
SIG-M5 (acute myeloid leukaemia, suspension) | 0.153 | 0.164 µM | 0.994 | > 5.12 µM | 0.667 | 3.21 µM
SISO (cervix, adherent) | 0.78 | 7.88 µM | 0.983 | > 5.12 µM | 0.988 | > 20 µM
SK-ES-1 (Ewing sarcoma, semi-adherent) | 0.28 | 0.284 µM | 0.947 | > 5.12 µM | 0.951 | > 20 µM
SK-HEP-1 (liver, adherent) | 0.634 | 2.86 µM | 0.988 | > 5.12 µM | 0.985 | > 20 µM
SK-MEL-24 (melanoma, adherent) | 0.6 | 2.5 µM | 0.983 | > 5.12 µM | 0.927 | > 20 µM
SK-OV-3 (ovary, adherent) | 0.441 | 0.828 µM | 0.946 | > 5.12 µM | 0.966 | > 20 µM
SK-UT-1 (soft tissue, adherent) | 0.788 | 7.91 µM | 0.989 | > 5.12 µM | 0.989 | > 20 µM
SKG-IIIa (cervix, adherent) | 0.983 | > 20 µM | 0.981 | > 5.12 µM | 0.978 | > 20 µM

Cell Line | AUC (CAY10603) | IC50 (CAY10603) | AUC (CH5424802) | IC50 (CH5424802) | AUC (ACHP (KIN001-260)) | IC50 (ACHP (KIN001-260))
SKN-3 (head and neck, adherent) | 0.615 | 2.74 µM | 0.982 | > 5.12 µM | 0.926 | > 20 µM
SN12C (kidney, adherent) | 0.658 | 3.64 µM | 0.985 | > 5.12 µM | 0.985 | > 20 µM
SNU-61 (large intestine, adherent) | 0.445 | 0.846 µM | 0.958 | > 5.12 µM | 0.972 | > 20 µM
SNU-175 (large intestine, suspension) | 0.44 | 0.865 µM | 0.937 | > 5.12 µM | 0.929 | > 20 µM
SNU-182 (liver, adherent) | 0.514 | 1.36 µM | 0.985 | > 5.12 µM | 0.976 | > 20 µM
SNU-398 (liver, adherent) | 0.502 | 1.27 µM | 0.977 | > 5.12 µM | 0.917 | > 20 µM
SNU-423 (liver, adherent) | 0.406 | 0.659 µM | 0.967 | > 5.12 µM | 0.956 | > 20 µM
SNU-449 (liver, adherent) | 0.83 | 14.2 µM | 0.985 | > 5.12 µM | 0.939 | > 20 µM
SNU-475 (liver, adherent) | 0.56 | 1.78 µM | 0.991 | > 5.12 µM | 0.963 | > 20 µM
SNU-1040 (large intestine, adherent) | 0.685 | 4.96 µM | 0.967 | > 5.12 µM | 0.886 | > 20 µM
ST486 (Burkitt lymphoma, suspension) | 0.329 | 0.443 µM | 0.979 | > 5.12 µM | 0.68 | 3.73 µM
SU-DHL-1 (anaplastic large cell lymphoma, suspension) | 0.656 | 2.97 µM | 0.051 | – | 0.997 | > 20 µM
SU-DHL-4 (B-cell lymphoma, suspension) | 0.296 | 0.401 µM | 0.997 | > 5.12 µM | 0.942 | 18 µM
SU-DHL-5 (B-cell lymphoma, suspension) | 0.122 | 0.131 µM | 0.977 | > 5.12 µM | 0.904 | 14.8 µM
SU-DHL-6 (B-cell lymphoma, suspension) | 0.2 | 0.224 µM | 0.986 | > 5.12 µM | 0.765 | 5.61 µM
SU-DHL-16 (B-cell lymphoma, suspension) | 0.026 | < 0.0781 µM | 0.994 | > 5.12 µM | 0.729 | 4.51 µM
SUIT-2 (pancreas, adherent) | 0.505 | 1.29 µM | 0.974 | > 5.12 µM | 0.838 | 14.5 µM
SUP-B15 (lymphoblastic leukaemia, suspension) | 0.286 | 0.32 µM | 0.956 | > 5.12 µM | 0.946 | > 20 µM

IC50 is the fitted dose that halves viability relative to control wells, and lower means more sensitive; where the fit passes the top or lowest dose, that dose stands as a limit. AUC sums up the same curve from the lowest dose to the 256-fold higher top dose; values near 1 show little effect. Any top dose called inferred is not printed in the source and was worked back from the curve model.
